Over roughly 110,000 compounds, “z-score” has its median near -0.1; the highest 2% begin near 2. The list shows a part of the results. Activity calls are given as the source filed them.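 The calls were made as follows: active = z-score in the third read window above 3 or below -3; inactive = the rest.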

The text below walks through data of PubChem BioAssay AID488969 (Vanderbilt High Throughput Screening Facility, 2010).

This test deals with Metabotropic glutamate receptor 8 (Rattus norvegicus) (UniProt P70579). Put plainly: mGluR8 Gi/Go-coupled signaling modulation – cell-based, rat, thallium flux, HTS, primary screen (AID 488969). The note with it: HEK293 rat mGluR8, GIRK (G protein-gated inwardly rectifying potassium channel) thallium flux, FluoZin2; at 10 µM; stronger effect = higher value; submaximal glutamate (EC20) added with thallium.
Sequence of UniProt P70579 (P70579 whole entry, looked up): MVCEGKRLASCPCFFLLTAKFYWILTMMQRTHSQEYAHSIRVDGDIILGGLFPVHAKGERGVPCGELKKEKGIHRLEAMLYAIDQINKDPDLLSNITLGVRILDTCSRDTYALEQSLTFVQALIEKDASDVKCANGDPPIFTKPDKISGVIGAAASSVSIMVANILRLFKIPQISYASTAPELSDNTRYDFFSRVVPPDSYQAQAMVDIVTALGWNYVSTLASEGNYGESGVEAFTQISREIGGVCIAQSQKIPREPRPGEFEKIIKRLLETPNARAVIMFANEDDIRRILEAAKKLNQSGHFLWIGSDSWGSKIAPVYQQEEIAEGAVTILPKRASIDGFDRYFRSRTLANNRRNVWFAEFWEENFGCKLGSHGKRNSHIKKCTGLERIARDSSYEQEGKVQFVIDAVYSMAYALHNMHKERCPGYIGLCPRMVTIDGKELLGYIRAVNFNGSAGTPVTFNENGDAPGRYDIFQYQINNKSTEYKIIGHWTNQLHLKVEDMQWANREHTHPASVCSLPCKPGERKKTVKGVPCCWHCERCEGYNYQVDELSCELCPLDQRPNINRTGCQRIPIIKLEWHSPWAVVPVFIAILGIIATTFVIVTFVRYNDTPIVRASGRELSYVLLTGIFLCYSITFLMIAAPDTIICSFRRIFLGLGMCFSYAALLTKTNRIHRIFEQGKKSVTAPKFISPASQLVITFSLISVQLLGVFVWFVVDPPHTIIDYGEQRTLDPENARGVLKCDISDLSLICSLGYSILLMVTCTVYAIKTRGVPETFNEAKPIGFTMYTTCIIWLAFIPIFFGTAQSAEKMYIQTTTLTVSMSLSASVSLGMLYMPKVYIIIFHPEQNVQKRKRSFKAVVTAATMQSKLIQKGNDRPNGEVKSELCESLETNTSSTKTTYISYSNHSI
`O=C(NCc1ccc(Cl)cc1)C1=Cc2cc(Cl)ccc2OC1`: the z-score was -0.178.
The figure for `CS(=O)(=O)N(Cc1ccccc1)c1ccc(C(=O)NCCSCc2ccco2)cc1` is -0.246; for `CC1=[N+](C)N(c2ccccc2)C(=O)C1N=Cc1ccc(Cl)cc1` (configuration not stated) it is 0.872.
The figure for `CCc1ccc(Nc2nnc(SC3CCOC3=O)s2)cc1` (configuration not stated) is -0.427; for `CCSC1=C(C#N)C(c2ccc(F)cc2)CC(=O)N1` (configuration not stated) it is -0.55; for `CC(C)NC(=O)c1cccc(Br)c1` it is -0.0557.
`O=C1c2ccccc2C(=O)C12OC2c1cccc2ccccc12` (configuration not stated) gave a z-score of -0.179.
The figure for `COC(=O)/C(=C/c1ccc(OC)cc1)NC(=O)c1ccco1` is 0.209.
The figure for `Cc1ccc(NC(C)c2cc(Cl)ccc2O)cc1` (configuration not stated) is 1.51.
The figure for `CN1CCN(CCC(=O)Nc2ccc(OCc3ccccc3)cc2)CC1` is -0.0231; for `CCCCc1nccn1CCn1ccnc1CCCC` it is 0.548; for `Cc1ccc(NC(=O)C2(NC(=O)c3ccccn3)CCCCC2)cc1Br` it is -0.308.
With `CCOC(=O)c1c(C)[nH]c(=S)c(C#N)c1-c1ccc(Cl)cc1`, the z-score was active: 3.4.
On to `O=C1CC(NCc2ccc3c(c2)OCO3)C(=O)N1Cc1ccc2c(c1)OCO2` (configuration not stated), for which the z-score is 1.09.
The figure for `COc1cc(C(=O)Sc2ccc(C)cc2)cc(OC)c1OC` is -0.0868.
The figure for `Cc1onc(-c2ccccc2Cl)c1C(=O)Nc1nc2ccc(S(C)(=O)=O)cc2s1` is -0.0827; for `COCc1[nH][nH]c(=O)c1C=Nc1ccccc1` it is -0.0992; for `CC1CC(C)CN(c2nc3c(c(=O)n(C)c(=O)n3C)n2C)C1` (configuration not stated) it is -0.18.
The figure for `O=C(Oc1ccc(Br)cc1C(=S)N1CCCC1)c1ccccc1F` is 0.691; for `Cc1ccc(NC(=O)CNc2cccc(C)c2C)c(C)c1` it is -0.024.
As to `Cc1cccc(OCCCC(=O)NC(C)c2ccccc2)c1` (configuration not stated), the z-score was -0.0747.
`O=C(N/N=C/C=C\c1cccc([N+](=O)[O-])c1)c1ccccn1` registered a z-score of 0.0774.
The figure for `CCOC(=O)N1CCN(C(=O)CSCc2ccc(C)cc2)CC1` is 0.222; for `O=C(CN1C(=O)C2C3C=CC(C3)C2C1=O)Nc1nc2ccccc2[nH]1` (configuration not stated) it is 0.113.
The figure for `CC(=O)c1ccc(C(=O)Nc2ccc(N3CCOCC3)cc2)cc1` is 0.613.
The figure for `Cn1cnnc1SCNC(=O)C(F)(F)F` is 0.792.
Molecule `O=C(OC(C(=O)NCc1ccco1)C(OC(=O)c1ccccc1)C(=O)NCc1ccco1)c1ccccc1` (configuration not stated) registered a z-score of 1.26.
The figure for `CCOc1ccc(C(=O)Nc2c(C(N)=O)oc3ccccc23)cc1` is 0.19; for `Cn1nc(-c2ccc(N3CCOCC3)c(NC(=O)c3ccccc3)c2)c2ccccc2c1=O` it is active: -5.83.
The molecule `COc1ccc2c(c1)CCc1c(C(=O)N3CCCCCC3)noc1-2` showed a z-score of 0.435.
The figure for `CCOC(=O)c1sc(=S)n(CC)c1NC(=O)C1CC1` is 1.75.
Molecule `CCN(CC)CCNC(C(=O)Nc1cc(C(F)(F)F)ccc1Cl)c1ccccc1` (configuration not stated) had a z-score of -0.037.
